PubChem BioAssay (NCATS)
Values joined by “and” are separate entries in the source; they are usually repeats but may differ in a detail not shown here. Identical values can stand only once. The shares of active, inactive and inconclusive entries below differ from those in the screen. A potency beside an inconclusive call is a rough fit, not a confirmed value. Some structures have more than one record in an assay (separate samples or runs), and their calls can disagree. Active and inactive are the calls of the source. The call rests on the fitted dose curve; in most records, active means well fitted inhibition curve with a large enough effect; inconclusive means small, poorly fitted or top-dose-only effect; inactive means flat fitted curve, though single readings scatter.

Each compound was assayed on KB-3-1 (assay: Cytotoxic Profiling of Annotated Libraries Using Quantitative High-Throughput Screening (AID 1296008; further: nearly all actives have a fitted effect of over 60% in size)). Conditions: Five cell lines viability, CellTiter-Glo ATP luminescence, 48-72 h; max response: stronger effect = lower value.
In short: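 Cytotoxicity was measured as CellTiter-Glo ATP luminescence, read after 10 min at room temperature. Compound treatment of the cells lasted 48 or 72 hr at 37 degrees Celsius in a qHTS format.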
On the % scale 0 is the no-effect control and ±100 the full control effect; potency means the concentration at half of the fitted maximal effect; tags describe the fitted curve by direction and shape.

| Compound | Potency | max response | outcome |
| --- | --- | --- | --- |
| C[C@]12CCC(=O)C=C1[C@@H]1CC1[C@H]1[C@H]3[C@@H]4C[C@H]4[C@@]4(CCC(=O)O4)[C@@]3(C)CC[C@H]12 (some centres not stated) | inconclusive: 37.2 µM [inhibitor, single point] | – | – |
| CC(C)Oc1ccc(C(=O)N[C@H](CNC(=O)CN(C)C)Cc2ccc(-c3cn4cccc([C@H](C)O)c4n3)cc2)cc1Cl | active: 0.332 µM | – | – |
| c1ccc(-c2oc3ncnc(NC[C@@H]4CCCO4)c3c2-c2ccccc2)cc1 | inconclusive: 29.6 µM [inhibitor, single point] and inconclusive: 29.1 µM [inhibitor, single point] | – | – |
| C[C@@H]1CC=CC=CC=CC=C[C@@H](O[C@@H]2O[C@H](C)[C@@H](O)[C@H](N)[C@H]2O)C[C@@H]2O[C@](O)(C[C@@H](O)C[C@@H]3O[C@@H]3C=CC(=O)O1)C[C@H](O)[C@@H]2C(=O)O | inconclusive: 37.2 µM [inhibitor, single point] | – | – |
| CC(=O)SC[C@@H](C)C(=O)N1CCC[C@H]1C(=O)N[C@@H](Cc1ccccc1)C(=O)O | – | inactive: 2.35% | – |
| COc1cc(OC2CCN(C)CC2)ccc1Nc1ncc2c(n1)n(C1CCCC1)c(=O)n2C | active: 4.18 µM | – | – |
| CCC(=O)N1CCN(c2ccc(-n3c(=O)ccc4cnc5ccc(-c6cnc7ccccc7c6)cc5c43)cc2C(F)(F)F)CC1 | inconclusive: 46.9 nM [inhibitor, full curve] and inconclusive: 150 nM [inhibitor, full curve] | – | – |
| C=CC(=O)N1CCc2ccc(-n3c(=O)ccc4cnc5ccc(-c6cnn(C)c6)cc5c43)cc21 | active: 4.18 µM | – | – |
| CN(C(=O)c1ccc(F)cc1C(F)(F)F)C1CCN(c2nnc(-c3ccnn3C)c3ccccc23)CC1 | inconclusive: 37.2 µM [inhibitor, single point] | – | – |
| Cc1cc(NS(=O)(=O)c2ccc(N)cc2)no1 | – | inactive: -10.1% | inactive |
| CC(=O)O[C@H]1C(=O)[C@@]2(C)C([C@H](OC(=O)c3ccccc3)[C@]3(O)C[C@H](OC(=O)[C@H](O)[C@@H](NC(=O)c4ccccc4)c4ccccc4)C(C)=C1C3(C)C)[C@]1(OC(C)=O)CO[C@@H]1C[C@@H]2O (some centres not stated) | active: 1 nM and active: 7.2 nM | – | – |
| CN(C)c1ccccc1CN1CCCN(Cc2ccccc2N(C)C)C1c1ccncc1 | – | – | inactive |
| CCc1ccc(CCOc2ccc(CC3SC(=O)NC3=O)cc2)nc1 (configuration not stated) | – | inactive: -8.26% and inactive: 7.14% | – |
| CCCc1nn(C)c2c(=O)[nH]c(-c3cc(S(=O)(=O)N4CCN(C)CC4)ccc3OCC)nc12 | inconclusive: 33.2 µM [inhibitor, partial curve, poor fit] | – | – |
| COc1cc2c(cc1-c1c(C)noc1C)ncc1[nH]c(=O)n([C@H](C)c3ccccn3)c12 | active: 16.6 µM and inconclusive: 5.17 µM [inhibitor, full curve] | – | – |
| COc1cc2ncn(-c3cc(OCc4ccccc4S(C)(=O)=O)c(C#N)s3)c2cc1OC | – | inactive: -2.12% | – |
| CN(C)CCCN1c2ccccc2CCc2ccc(Cl)cc21 | inconclusive: 14.8 µM [inhibitor, partial curve] | – | – |
| Cc1ccc2c(c1)c1c(n2CCc2ccc(C)nc2)CCN(C)C1 | inconclusive: 29.1 µM [inhibitor, single point] | inactive: 2.15% | – |
| CCN1CCN(c2ccc(Nc3cc(N(C)C(=O)Nc4c(Cl)c(OC)cc(OC)c4Cl)ncn3)cc2)CC1 | active: 23.1 µM | – | – |

| Compound | Potency | max response | outcome |
| --- | --- | --- | --- |
| Nc1ccc(C(=O)c2cc3c(ccc4ccccc43)[nH]2)cc1 | active: 4.18 µM | – | – |
| C=C1CCC2[C@](C)(CO)C(O)CC[C@]2(C)C1CC=C1C(=O)OCC1O (some centres not stated) | – | inactive: 8.99% | – |
| COc1cccc2c1C(=O)c1c(O)c3c(c(O)c1C2=O)C[C@@](O)(C(=O)CO)C[C@@H]3O[C@H]1C[C@H](N)[C@@H](O)[C@H](C)O1 | active: 0.743 µM | – | – |
| O=C(O)c1ccc(-n2nc(-c3ccccc3O)nc2-c2ccccc2O)cc1 | inconclusive: 18.7 µM [inhibitor, partial curve] | – | – |
| CCc1c2c(nc3ccc(OC(=O)N4CCC(N5CCCCC5)CC4)cc13)-c1cc3c(c(=O)n1C2)COC(=O)[C@]3(O)CC | inconclusive: 18.7 µM [inhibitor, partial curve] | – | – |
| CN(C)CCCNC(=O)c1ccc(-c2cc(O)c3ncccc3c2)cc1 | inconclusive: 33.2 µM [inhibitor, single point] and inconclusive: 25.9 µM [inhibitor, single point] | – | – |
| CCC(=O)O[C@]1(C(=O)SCF)[C@H](C)C[C@H]2[C@@H]3C[C@H](F)C4=CC(=O)C=C[C@]4(C)[C@@]3(F)[C@@H](O)C[C@@]21C | – | inactive: 26.7% | inactive |
| CCc1cc(-c2n[nH]c(C)c2-c2ccc3c(c2)OCCO3)c(O)cc1O | inconclusive: 2.64 µM [inhibitor, full curve] | – | – |
| CCCCCN(CCC12CC3CC(CC(C3)C1)C2)C(=O)NCCCc1ccncc1 | inconclusive: 20.6 µM [inhibitor, single point] | – | – |
| COc1ccc2c(c1)CC[C@@H](CN(C)CC(=O)O)[C@H]2c1ccccc1 | active: 3.32 µM | – | – |
| COC(=O)Nc1nc2ccc(C(=O)c3ccccc3)cc2[nH]1 | active: 0.623 µM | – | – |
| O=C1[C@H](Cc2ccc(O)cc2)N2C(=O)CCN(C(=O)NCc3ccccc3)[C@H]2CN1Cc1cccc2ccccc12 | active: 16.6 µM | – | – |
| CN(C)c1nc(Cc2ccc(NC(=O)c3ccc(C(F)(F)F)cc3)cc2)nc(N(C)C)c1CC(=O)O | – | inactive: 4.62% | inactive |
| c1nc2nc(Nc3ccc(N4CCOCC4)cc3)nc(NC3CCCCC3)c2[nH]1 | inconclusive: 0.317 µM [inhibitor, full curve] | – | – |
| CCC(=C(c1ccc(O)cc1)c1ccc(OCCNC)cc1)c1ccccc1 | inconclusive: 33.2 µM [inhibitor, single point] | – | – |
| Clc1cccc(Cl)c1NC1=NCCN1 | – | – | inactive |
| Cc1oc(=O)oc1CN1CCN(c2cc3c(cc2F)c(=O)c(C(=O)O)c2n3C(C)S2)CC1 (configuration not stated) | – | inactive: 23.6% | inactive |
| Cc1csc(-c2nnc(Nc3ccc(Oc4ncccc4-c4ccnc(N)n4)cc3)c3ccccc23)c1 | inconclusive: 37.2 µM [inhibitor, single point] and inconclusive: 29.1 µM [inhibitor, single point] | – | – |
